Out of some 48,000 compounds screened, about 120 (0.25%) were called active. Another 4% or so got no clear call; they are omitted. Calls follow the shape of the dose curve; as a rule, active = well fitted activation curve with a large enough effect; inconclusive = small, poorly fitted or top-dose-only effect, or another doubt; inactive = no such curve, though single readings can be large or run the other way. This is one part of the list.

This experiment can be described thus: Primary qHTS for Identification of Small Molecule Activators of Huntingtin-Antisense Promoter Activity. Also: nearly all actives have a fitted effect of over 55% in size. The conditions noted are these: HEK293 HTT-AS promoter firefly luciferase reporter, 24 h; series mostly up to 57.5 µM; activity change, positive = activation: at the top concentration. The essentials:
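HEK293 cells carrying firefly luciferase reporters were seeded at 2,500 per well in Opti-MEM and cultured for 24 h. They were then treated with compounds at up to 57.5 uM final for 24 h at 37 degrees C before Dual-Glo luminescence readout.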
On the technique in general: qHTS replaces the single test concentration by a dilution series.
`Cc1cccc(OCC(=O)Nc2nnc(S(=O)(=O)N3CCc4ccccc43)s2)c1`: the “activity change, positive = activation” value is inactive: -15.8%.
For `O=C(Nc1ccc(Cl)cc1)C(NS(=O)(=O)c1cccs1)c1ccccc1` (stereo unspecified) the value was inactive: -28.9%.
For `Cc1nc(-c2ccc(C)c(N3CCN(C(=O)Nc4cccc(Cl)c4C)CC3)c2)no1` the value was inactive: -35.8%; for `CCOC(=O)C1CCCN(Cc2cn3c(-c4cccc(Br)c4)nnc3s2)C1` (stereo unspecified), inactive: -36.2%.
The result for `Cc1ccc(-n2c(Cc3ccccc3)nnc2SCc2nc(-c3cccs3)no2)cc1C` reads inactive: -43.9%.
As to `COc1ccc(CNC(=O)c2ccc3nc(-c4ccc(F)cc4)c(-c4ccc(F)cc4)nc3c2)cc1`, the “activity change, positive = activation” value was inactive: -20.4%.
Regarding `CCC1(C)Cc2c(sc3nc(SC)n(-c4ccc(C)cc4)c(=O)c23)CO1` (stereo unspecified), the “activity change, positive = activation” value was inactive: 3.47%.
Take `O=C(Nc1ccc(-c2nc3cc(Cl)ccc3o2)cc1)c1cc2ccccc2o1`: the “activity change, positive = activation” value was inactive: 18.5%.
With `Cc1cc(NC(=O)CCNS(=O)(=O)c2cccc3nsnc23)ccc1Br`, the “activity change, positive = activation” value was inactive: -34.7%.
In the case of `Cc1ccc(NC(=O)c2ccccc2Br)c(C(=O)c2ccccc2)c1`, the “activity change, positive = activation” value was inactive: -21.4%.
The result for `CC1CCN(c2nc3ccc(C(=O)NCc4ccccc4)cc3s2)CC1` reads inactive: -76.2%; that for `COc1ccc(Cn2c(SCc3ccc(C(=O)NC(C)c4ccccc4)cc3)nc3cccnc32)cc1` (stereo unspecified), inactive: -17.7%.
Turning to `CCSc1nc(-c2ccccc2F)nc2c1Cc1c(CO)cnc(C)c1O2`, the “activity change, positive = activation” value is inactive: -9.44%.
The result for `COc1ccc(CCNC(=O)C(C)n2c(=O)cc(-c3ccccc3)c3c(C)nn(C)c32)cc1OC` (stereo unspecified) reads inactive: -22.3%.
For `CC1CCN(c2nc3ccc(C(=O)N4CCN(c5ccccc5)CC4)cc3s2)CC1` the value was inactive: -77.4%; for `CCOc1ccc(N(CC)C(=O)c2cc3c(s2)-c2ccccc2OC3)cc1`, inactive: -31.8%; for `COc1cccc(N2CCN(C(=O)c3nn(C)c4c3CSc3ccc(C)cc3-4)CC2)c1`, inactive: 0.395%.
The result for `Cc1ccc(-c2nc3sccn3c2Nc2ccc(C)c(C)c2)cc1` reads inactive: -10.2%; that for `O=c1c(O)c(-c2cc(O)c(O)c(O)c2)oc2cc(O)cc(O)c12`, inactive: -1.7%; that for `CCC(C(=O)Nc1cc(F)ccc1F)n1nc(C)c2c(C)n(-c3ccc(C)cc3)nc2c1=O` (stereo unspecified), inactive: -33.2%.
On to `CCN(C(=O)c1cn(CC)c(=O)c2cc(OC)c(OC)cc12)c1ccccc1F`, for which the “activity change, positive = activation” value is inactive: -18.2%.
The result for `Cc1cccc(NC(=O)C(=O)NCCc2csc(-c3ccc(F)cc3)n2)c1C` reads inactive: -10.8%; that for `Cc1cc(C)c2c(=O)cc(CSc3n[nH]c(C)n3)[nH]c2c1`, inactive: -7.56%.
The result for `COc1ccc(CCC(=O)NC2CC(=O)N(c3ccc(OC)cc3)C2)cc1` (stereo unspecified) reads inactive: -20.4%; that for `Cc1cc(N2CCCCC2)nc2ccc(NC(=O)CCC(=O)N3CCN(c4ccccc4)CC3)cc12`, inactive: 30.5%; that for `O=C(CSCc1ccc(F)cc1)N1CCc2c([nH]c3ccccc23)C1c1ccc(Cl)cc1` (stereo unspecified), inactive: -25.6%.
For `COc1cc(C(=O)Nc2ccccc2-c2nc(-c3ccc(C)cc3)no2)cc(OC)c1OC`, the “activity change, positive = activation” value is inactive: -3.47%.
Take `COc1ccc(NC(=O)CN2C(=O)c3cccnc3Sc3ccccc32)cc1OC`: the “activity change, positive = activation” value is inactive: 14.7%.
For `CCOC(=O)c1ccc(NC(=O)C2=C(C)Nc3nc(CCCO)nn3C2c2ccc(OC)cc2)cc1` (stereo unspecified), the “activity change, positive = activation” value was inactive: -15.9%.
The result for `Cc1cccc(N2CCN(C(=O)c3ccc(Nc4nc5ccccc5n5nnnc45)cc3)CC2)c1C` reads inactive: 17.2%.
For `CC1=C(C(=O)Nc2cc(Cl)ccc2C)C(c2cccs2)n2ncnc2N1` (stereo unspecified) the value was inactive: -2.49%.
The result for `CCN1CCN(C(=O)N[C@H](C(=O)N[C@@H]2C(=O)N3C(C(=O)O)=C(CSc4nnnn4C)CS[C@@H]23)c2ccc(O)cc2)C(=O)C1=O` reads inactive: 2.36% [at 19.1 µM, percent change from vehicle, -100% = no light]; that for `COc1ccc2c(CNCCc3cccs3)c(C(=O)O)n(Cc3ccc(F)cc3Cl)c2c1`, inactive: -56.4%; that for `CCC(Sc1nnc2c3ccccc3n(CC)c2n1)C(=O)Nc1nnc(C(C)C)s1` (stereo unspecified), inactive: -13.4%.
In the case of `COc1ccc(-c2cc3nc(C4CCN(C(=O)OC(C)(C)C)CC4)c(C(=O)Nc4cc(C)cc(C)c4)cn3n2)cc1`, the “activity change, positive = activation” value is inactive: 13%.
The result for `Cn1c(=O)cc(SCC(=O)N2CCN(c3ccccc3F)CC2)c2ccccc21` reads inactive: -19.4%; that for `CCCN1CCN(CCCNC(=O)c2ccc3nc(Cc4ccccc4)oc3c2)CC1`, inactive: -7.19%.
For `CCOc1ccc(CN(CCc2ccc3c(c2)OCO3)Cc2cc(OC)c(OC)cc2OC)cc1` the value was inactive: -22.7%; for `COc1ccc(C)cc1NC(=O)c1cc(S(=O)(=O)N2CCCCC2)c[nH]1`, inactive: -20.9%; for `Cc1cc(C)cc(NC(=O)CCCc2nc(-c3ccco3)no2)c1`, inactive: -21.8%.
The result for `Cc1cc(-n2c(C)nc3ccccc3c2=O)ccc1NC(=O)c1ccccc1[N+](=O)[O-]` reads inactive: -4.06%; that for `O=C(NCc1ccccc1F)c1ccc(CSc2nc3cccnc3n2Cc2ccccc2)cc1`, inactive: -21.5%.
For the compound `Cc1nn2c(=O)cc(COC(=O)c3ccccc3NC(=O)COc3ccccc3C)nc2s1`, the “activity change, positive = activation” value is inactive: -6.36%.
The result for `Cc1ccc(SCc2nc(-c3ccc(C(=O)NCCc4ccc(Cl)cc4)cc3)oc2C)cc1` reads inactive: 3.67%; that for `CCN(CC)CCOc1ccc(Cc2ccccc2)cc1`, “inactive”.
For the compound `COc1ccc(OC)c(NC(=O)[C@H](CSCc2ccccc2)N2Cc3ccccc3C2=O)c1`, the “activity change, positive = activation” value was inactive: -25.5%.
Regarding `CCOC(=O)c1cc(OC(=O)c2ccccc2Cl)n(-c2ccccc2)n1`, the “activity change, positive = activation” value was inactive: -24.3%.
The result for `COC(=O)c1cc2sc(Cl)cc2n1CC(=O)Nc1cc(C)cc(C)c1` reads inactive: 12.8%.
For `Cc1ccc(CNC(=O)Cn2c(=O)n(-c3ccc(C)cc3)c(=O)c3c2c2cc(C)ccc2n3C)cc1` the value was inactive: -0.207%.
The result for `COC(=O)c1cc2occc2n1CC(=O)Nc1ccc(N(C)C)cc1` reads inactive: 21%; that for `COC(=O)c1c(N)n(-c2ccc(OC)c(OC)c2)c2nc3ccccc3nc12`, inactive: -6.18%; that for `N#Cc1nc(-c2ccc(COc3ccccc3)o2)oc1N1CCCCC1`, inactive: -18.9%.
For the compound `Cc1ccc(CNC(=O)C(=O)NCC(c2ccco2)S(=O)(=O)c2ccccc2)cc1` (stereo unspecified), the “activity change, positive = activation” value is inactive: 15.5%.
The result for `Cc1ccccc1NC(=O)Cn1c(=O)n(Cc2ccccc2)c(=O)c2c(C)c(C)sc21` reads inactive: 12.2%; that for `CCc1ccc(NC(=O)C2CCN(c3ccc(Sc4ccc(C)cc4)nn3)CC2)cc1`, inactive: -3.72%.
The result for `COc1ccc(CCNC(=O)Cn2c(=O)cc(C(F)(F)F)c3c(C)nn(C)c32)c(OC)c1` reads inactive: -7.62%; that for `CCOc1cc(CNC(=O)c2cc(-c3ccc(Cl)s3)nc3ccccc23)ccc1OC`, inactive: -5.37%.
As to `Cc1ccc(N2CCN(S(=O)(=O)c3nnc(NC(=O)c4cccc(F)c4)s3)CC2)cc1`, the “activity change, positive = activation” value is inactive: -18.3%.
For `CCCCCCCCCCCCCCCCCCN(C)C` the value was inactive: -11.4%; for `O=C(Cn1cccc1C(=O)c1ccccc1)NCc1ccc(Cl)cc1`, inactive: 9.97%; for `COc1ccc(NC(=O)CNC(=O)Cn2ccc3ccccc3c2=O)c(OC)c1`, inactive: -17.4%.

For the origin of these results see PubChem BioAssay AID1508624 (National Center for Advancing Translational Sciences (NCATS), 2021).
